Target: T1, soluble monomeric human MUC16 (hMUC16.mmh, last five SEA domains) (Homo sapiens, UniProt Q8WXI7)
T1 construct: C-terminal tags (.mmh)
Assay: Surface plasmon resonance (Biacore) binding to hMUC16 fragment at 25° C.
Design: key: NB: No binding
Conditions: Table 5A, hybridoma antibodies (H1M, H2M, H3M)

T1 sequence (Q8WXI7 with tags, fused parts or gaps): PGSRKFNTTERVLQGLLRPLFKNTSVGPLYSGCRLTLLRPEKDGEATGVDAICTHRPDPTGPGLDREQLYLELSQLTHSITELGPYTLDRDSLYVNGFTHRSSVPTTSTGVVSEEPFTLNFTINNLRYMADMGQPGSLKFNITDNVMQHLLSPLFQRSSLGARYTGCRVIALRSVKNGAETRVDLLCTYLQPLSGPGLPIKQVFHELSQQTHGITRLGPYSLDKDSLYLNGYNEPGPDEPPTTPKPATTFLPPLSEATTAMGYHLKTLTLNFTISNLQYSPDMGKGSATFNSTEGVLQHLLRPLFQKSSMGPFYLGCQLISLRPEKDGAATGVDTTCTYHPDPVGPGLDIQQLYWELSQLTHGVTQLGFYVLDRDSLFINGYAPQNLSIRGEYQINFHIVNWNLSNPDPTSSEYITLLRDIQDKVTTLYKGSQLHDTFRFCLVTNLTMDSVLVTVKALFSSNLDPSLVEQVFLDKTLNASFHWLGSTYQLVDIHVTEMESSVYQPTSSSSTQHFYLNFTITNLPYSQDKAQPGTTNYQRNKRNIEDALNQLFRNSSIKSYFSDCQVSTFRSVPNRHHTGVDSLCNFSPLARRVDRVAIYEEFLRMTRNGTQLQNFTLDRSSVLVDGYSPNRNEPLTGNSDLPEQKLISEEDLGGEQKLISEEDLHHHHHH

B1: H3M9525N: hybridoma anti-MUC16 antibody, mIgG3; HCVR/LCVR SEQ ID NOs: 362/370 (antibody, V domains shown)
VH: QVQLQQWGAGLLKPSETLSLTCAVYGGSFSGYYWSWIRQPPGKGLEWIGEINHSGKTTYSPSLKSRVTISVDTSKSQFSLKLSSVTAADTAVYYCARQGLNYAIFDYWGQGTLVTVSS
VL: YIVMTQSPDSLAVSLGERATINCKSSRSILYTSNNKNYLAWYQQRPGQPPKLLIYWASTRESGVPDRFSGSGSGTDFTLTISSLQAEDVAVYYCQQYFSSPPTFGQGTKVEIK
modifications: mIgG3
- KD: no binding and NB
- ka: NB
- kd: NB
- t ½ (dissociative half-life): NB
